Data from PMC3629153.
Results are given in words; binding and its absence hold for the method and conditions named. In cells and extracts the contact can be indirect. Some results given as binding are weak or reduced against the parent protein; the word gives no strength.

Sequences of proteins named here, by UniProt entry; tags and fusion partners are left off. Residues count along the entry.
UniProt P21926: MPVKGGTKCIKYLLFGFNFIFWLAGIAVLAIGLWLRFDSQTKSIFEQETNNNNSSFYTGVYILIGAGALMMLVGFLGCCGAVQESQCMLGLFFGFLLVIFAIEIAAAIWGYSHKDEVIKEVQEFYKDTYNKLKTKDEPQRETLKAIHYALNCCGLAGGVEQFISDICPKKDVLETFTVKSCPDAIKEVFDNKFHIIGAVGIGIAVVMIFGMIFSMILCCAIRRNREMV
UniProt P08174, residues 35-353: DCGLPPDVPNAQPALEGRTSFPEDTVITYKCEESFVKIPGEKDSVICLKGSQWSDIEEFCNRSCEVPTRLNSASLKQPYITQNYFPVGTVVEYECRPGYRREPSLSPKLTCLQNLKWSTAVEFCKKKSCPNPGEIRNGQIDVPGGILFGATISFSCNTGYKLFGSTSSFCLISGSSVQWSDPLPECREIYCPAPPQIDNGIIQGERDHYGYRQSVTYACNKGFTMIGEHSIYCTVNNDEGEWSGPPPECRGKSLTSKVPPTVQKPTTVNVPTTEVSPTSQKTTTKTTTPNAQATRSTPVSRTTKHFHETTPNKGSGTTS

Legend:
[1] = target: tetraspanin CD9 (human (endogenous in MDA-MB-231)) (UniProt P21926); assay: co-IP; MDA-MB-231 wild type cells (also CD151si and CD151RX cells) treated with 100 nM PMA for 30 min, lysed in 1% Brij 99; CD9, CD151, α3 integrin or CD55 immunoprecipitated; blot for PKCα; PMA enhances the α3β1-PKCα association above basal levels
[2] = target: CD55 (human (endogenous in MDA-MB-231)) (UniProt P08174); assay: as above
[3] = target: T1, tetraspanin CD151 (human (endogenous in MDA-MB-231)) (UniProt P48509); assay: as above
T1 sequence: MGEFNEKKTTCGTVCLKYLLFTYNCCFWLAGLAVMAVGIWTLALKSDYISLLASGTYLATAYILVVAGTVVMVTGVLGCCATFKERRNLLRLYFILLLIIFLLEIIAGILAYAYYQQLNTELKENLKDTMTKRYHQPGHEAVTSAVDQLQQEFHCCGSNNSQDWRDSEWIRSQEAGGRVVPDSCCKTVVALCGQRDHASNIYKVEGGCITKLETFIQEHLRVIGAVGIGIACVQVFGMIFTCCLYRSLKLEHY

[4] = target: tetraspanin CD9 (human (endogenous in MDA-MB-231)) (UniProt P21926); assay: co-IP; MDA-MB-231 wild type cells (also CD151si cells) lysed in 1% Brij 58; CD9, CD151, α3 integrin or CD55 immunoprecipitated; blot for PKCα
[5] = target: CD55 (human (endogenous in MDA-MB-231)) (UniProt P08174); assay: as above
[6] = target: T1, tetraspanin CD151 (human (endogenous in MDA-MB-231)); assay: as above

- binding [1]: binds
- binding [2]: no binding
- binding [3]: binds
- binding [4]: binds
- binding [5]: no binding
- binding [6]: binds
Substance: PKCα (from UniProt P17252 1-672) (enzyme)
